Structures are written as SMILES. About 14,000 (4.5%) of roughly 310,000 compounds showed an effect of 50% or more. Effects have a minus sign here. This is one part of the list.
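Note: peak tail current of the secondary pulse compared with the same well before compound.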

human ether-à-go-go-related gene (hERG) potassium channel, sequence (Q12809 whole entry, looked up): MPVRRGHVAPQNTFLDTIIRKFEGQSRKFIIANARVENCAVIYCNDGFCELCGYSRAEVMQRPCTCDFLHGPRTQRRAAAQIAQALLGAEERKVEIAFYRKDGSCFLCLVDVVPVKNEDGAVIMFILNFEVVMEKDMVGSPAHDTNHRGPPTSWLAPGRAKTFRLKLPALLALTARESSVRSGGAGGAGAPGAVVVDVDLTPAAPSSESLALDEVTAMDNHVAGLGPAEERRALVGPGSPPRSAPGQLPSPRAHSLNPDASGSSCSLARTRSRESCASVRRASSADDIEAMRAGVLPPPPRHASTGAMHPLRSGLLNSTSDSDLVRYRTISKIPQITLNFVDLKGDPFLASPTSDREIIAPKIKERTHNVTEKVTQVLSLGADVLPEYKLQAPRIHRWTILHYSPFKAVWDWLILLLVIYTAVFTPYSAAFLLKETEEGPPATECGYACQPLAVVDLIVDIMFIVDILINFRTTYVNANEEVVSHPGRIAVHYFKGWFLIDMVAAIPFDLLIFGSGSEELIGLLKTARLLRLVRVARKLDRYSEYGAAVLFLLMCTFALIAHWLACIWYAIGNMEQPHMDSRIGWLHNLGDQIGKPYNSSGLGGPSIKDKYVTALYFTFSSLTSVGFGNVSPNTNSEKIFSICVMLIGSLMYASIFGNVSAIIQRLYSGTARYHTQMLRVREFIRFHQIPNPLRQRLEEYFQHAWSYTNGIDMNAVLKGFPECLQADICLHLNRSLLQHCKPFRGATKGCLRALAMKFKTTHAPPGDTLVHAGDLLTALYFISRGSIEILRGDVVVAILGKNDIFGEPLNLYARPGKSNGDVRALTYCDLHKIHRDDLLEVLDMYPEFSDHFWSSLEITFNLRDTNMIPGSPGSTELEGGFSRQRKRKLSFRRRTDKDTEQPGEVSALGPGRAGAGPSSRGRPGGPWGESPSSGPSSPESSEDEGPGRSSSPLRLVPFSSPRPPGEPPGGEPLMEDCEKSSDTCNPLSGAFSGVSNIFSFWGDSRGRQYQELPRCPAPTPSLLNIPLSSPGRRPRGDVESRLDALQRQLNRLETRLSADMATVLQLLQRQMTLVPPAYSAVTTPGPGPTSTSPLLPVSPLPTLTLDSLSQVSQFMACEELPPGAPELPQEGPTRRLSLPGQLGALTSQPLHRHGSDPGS

This assay concerns the target human ether-à-go-go-related gene (hERG) potassium channel (human, UniProt Q12809). Description: primary screen, population patch clamp on CHO cells stably expressing hERG.
With `Cc1cc(Br)ccc1NC(=O)C1CSC2(C)CCC(=O)N12` (stereo not drawn), the “hERG current change (%, negative = inhibition) at 10uM” value is given as -15.5%. As for `CC1=C(C(=O)N(C)C)C(c2ccc(Cl)c(Cl)c2)NC(=O)N1` (stereo not drawn), the figure is 12.8%. As for `O=S1(=O)N(Cc2ccccc2F)CCCN1Cc1c(F)cccc1Cl`, the figure is 7.29%; as for `Cc1cccc(C(=O)Oc2ccc(/C=N/O)cc2)c1`, -11.6%; as for `O=C(CSC1=NS(=O)(=O)c2cc(F)ccc2N1)Nc1cccc(F)c1`, -4.79%. As for `O=C(CNC(c1ccccc1)c1ccccc1)Nc1c(F)cccc1F`, the figure is -17.2%.

Turning to `CN(Cc1c(C(=O)N/N=C/c2ccccc2F)nnn1-c1nonc1N)c1ccccc1`, the “hERG current change (%, negative = inhibition) at 10uM” value worked out at 36.1%. As for `COC(=O)C(C)Sc1n[nH]c(=S)s1` (stereo not drawn), the figure is 19.2%; as for `Br.c1cn2cc(CN3CCOCC3)nc2s1`, 1.96%; as for `COCCN1C(=O)/C(=C/c2c(OC)cc(OC)cc2OC)C(=O)N(c2ccccc2)C1=O`, 12.2%. As for `O=C(O)c1cnn(-c2nc(-c3cccc([N+](=O)[O-])c3)cs2)c1C(F)(F)F`, the figure is 30.4%; as for `COc1cc(/C=N/n2cc(-c3ccccc3)[nH]c2=S)cc(OC)c1O`, -32.1%; as for `Cc1ccc(OCCNC(=O)CCNS(=O)(=O)c2ccc(Br)cc2)cc1`, 15.7%. Regarding `COC(=O)C1=C(c2ccc(F)cc2OCc2ccccc2)C[C@@H]2CC[C@H]1N2C(=O)NC1CC1`, the “hERG current change (%, negative = inhibition) at 10uM” value was -10.4%. Turning to `O=C1NN=C(c2ccccc2)CC1c1ccc(Cl)cc1Cl` (stereo not drawn), the “hERG current change (%, negative = inhibition) at 10uM” value came out at 19.8%. `O=[N+]([O-])c1ccc(-c2nc(C(Cl)Cl)c3ccccc3n2)cc1`: the “hERG current change (%, negative = inhibition) at 10uM” value turned out to be 5.99%. As for `CC(=O)c1ccc(C(=O)N2CCCC(Nc3ccccc3)C2)s1` (stereo not drawn), the figure is 7.78%; as for `CC(=O)Nc1ccc(S(=O)(=O)N/N=C/c2cccnc2)cc1`, 20.6%; as for `CCn1nc([N+](=O)[O-])c(C(C#N)c2nc3cc(C(F)(F)F)ccc3s2)c(Cl)c1=O` (stereo not drawn), 21%. As for `CN(C)c1cc[n+](CC(=O)Nc2ccc([N+](=O)[O-])cc2Cl)cc1.[Cl-]`, the figure is 4.85%; as for `O=C(CCCCCn1c(=O)[nH]c2ccsc2c1=O)NCc1ccc2c(c1)OCO2`, 6.93%; as for `CC(=O)NC(Cc1ccc(C)cc1)C(=O)NC1CCN(S(=O)(=O)c2ccccc2)CC1` (stereo not drawn), -34.4%. As for `Cn1c(=O)c2[nH]c(NCCCN3CCOCC3)nc2n(C)c1=O`, the figure is -1.8%; as for `CC(=O)N1CCc2cc(Br)cc(S(=O)(=O)NCC3CCCO3)c21` (stereo not drawn), -3.74%. Regarding `COc1ccc(-n2ncc3c2CC(C)(C)CC3NC(=O)CCN2CCCC2=O)cc1` (stereo not drawn), the “hERG current change (%, negative = inhibition) at 10uM” value is listed as -1.07%. As for `CCOc1ccc(NS(=O)(=O)c2ccc3[nH]cc(C(=O)NC(C)CC)c(=O)c3c2)cc1` (stereo not drawn), the figure is 2.15%; as for `O=C(O)C(Cc1ccccc1)NC(=O)C(Cc1ccccc1)NC(=O)C12CC3CC(CC(C3)C1)C2` (stereo not drawn), 12.8%. As for `CNS(=O)(=O)c1cccc(C(=O)OCC(=O)N2c3ccccc3CC2C)c1` (stereo not drawn), the figure is -27.9%; as for `CC(C)(C)[C@@H]1C=C(C(=O)NCc2ccccc2)O[C@H](OCc2ccc(CO)cc2)C1`, -28.4%; as for `Cc1ccc(SC[C@H](Cc2ccccc2)N2CC[C@@H](C)CCC2=O)cc1`, -28.7%. As for `COc1ccc2oc(C(=O)OCC(=O)N3CCN(S(=O)(=O)c4ccccc4)CC3)c(C)c2c1`, the figure is 11%; as for `c1ccc2[nH]c(-c3ccncc3)nc2c1`, 12.5%.

As for `O=C(COC(=O)c1ccccn1)NC1CCCCC1`, the “hERG current change (%, negative = inhibition) at 10uM” value worked out at 2.2%.

As to `CCOC(=O)C1=C(C)N(CCC(=O)O)C(=O)NC1c1ccccc1Cl` (stereo not drawn), the “hERG current change (%, negative = inhibition) at 10uM” value is given as -4.03%. As for `N#CN=C(c1ccccc1)c1ccccc1`, the figure is 20.5%. As for `CCn1c(-c2csc(-c3ccc(Cl)cc3)n2)n[nH]c1=S`, the figure is 11.3%; as for `Cc1ccc(-c2ccc(=O)n(Cc3cc(C)ccc3C)n2)cc1`, 16%; as for `N#Cc1ccc(-c2cccs2)nc1SCc1cccnc1`, 17.5%. As for `Cc1ccc(N2C(N)=C(C#N)C3(C(=O)N(C)c4ccccc43)C3=C2CC(C)(C)CC3=O)cc1Cl` (stereo not drawn), the figure is -8.85%. In the case of `CCCCOc1ccc(C(=O)NCC(=O)NNC(=O)C2COc3ccccc3O2)cc1` (stereo not drawn), the “hERG current change (%, negative = inhibition) at 10uM” value is -18.2%.

Turning to `Cc1ccc(/C(N)=N/OC(=O)/C=C/c2ccccc2)cc1`, the “hERG current change (%, negative = inhibition) at 10uM” value is 1.03%. As for `COc1cccc(/C=N/n2c(COc3ccccc3)n[nH]c2=S)c1OC`, the figure is 6.88%; as for `COCCOC(=O)C1=C(N)Oc2c(oc(CO)cc2=O)C1c1ccccc1F` (stereo not drawn), -4.2%; as for `COc1ccc(N2CCN(C(=O)c3cc4c(=O)n(Cc5ccccc5)ccc4nc3C)CC2)cc1`, -55.2%. As for `O=C1NC2C(NC(=O)N2C2CCCCC2)N1C1CCCCC1` (stereo not drawn), the figure is 7.47%; as for `COc1ccc(OC)c(-c2c3c([nH]c(=S)c2C#N)CCCC3)c1`, 10.8%; as for `Cc1cccc(N2CCN(S(=O)(=O)c3c(C(=O)N4CCCCC4)c(C)n(C)c3C)CC2)c1C`, -9.26%.

As for `CC(=O)NC(CCS(C)(=O)=O)C(=O)Nc1ccccc1` (stereo not drawn), the “hERG current change (%, negative = inhibition) at 10uM” value is recorded as 23%. As for `COC(=O)Cc1c(C)nc2nc(NCc3c(F)cccc3Cl)[nH]n2c1=O`, the figure is -11.3%; as for `CCO.O=c1[nH]c(NNC(=S)NCc2ccccc2)nc2c1C1(CCCCC1)Cc1ccccc1-2`, 21.9%; as for `CN(C)c1ccc(-c2nn3c(-c4cccnc4)nnc3s2)cc1`, 10.6%. Consider `CCCC(C)C(=O)OCC(=O)NCc1ccc(OC)c(OC)c1` (stereo not drawn), for which the “hERG current change (%, negative = inhibition) at 10uM” value was determined as 3.95%.

In the case of `COc1ccc(CCNC(=O)c2noc3c2CCCC3)cc1OC`, the “hERG current change (%, negative = inhibition) at 10uM” value is 3.46%. For the compound `CCOc1ccc(C2C=C(c3ccc(C)cc3)Nc3ncnn32)cc1` (stereo not drawn), the “hERG current change (%, negative = inhibition) at 10uM” value worked out at 1.34%. For `COc1ccc(O)c(C(=O)c2cnc3onc(C(C)C)c3c2)c1`, the “hERG current change (%, negative = inhibition) at 10uM” value is listed as 11.1%. For the compound `O=S(=O)(NC1CCCC1)c1ccc(S(=O)(=O)N2CCCN(Cc3ccccc3)C2)cc1`, the “hERG current change (%, negative = inhibition) at 10uM” value is recorded as -26.8%. As for `CCc1nc(SCc2ccccc2)n[nH]1`, the figure is 23.1%.

Turning to `CCOC(=O)Cc1c(C)c2ccc(N(CC)CC)cc2oc1=O`, the “hERG current change (%, negative = inhibition) at 10uM” value worked out at 11.1%. Take `Cc1nn(CC(=O)Nc2nccs2)c(C)c1[N+](=O)[O-]`: the “hERG current change (%, negative = inhibition) at 10uM” value is -3.78%. As for `CC1(C)CC(=O)C2=C(C1)N(CCN1CCOCC1)C1=C(C(=O)CC(C)(C)C1)C2c1ccc(Cl)c([N+](=O)[O-])c1`, the figure is -30.3%. As for `CC1CCc2nc3ccccc3c(C(=O)OCC(=O)NC3CCS(=O)(=O)C3)c2C1` (stereo not drawn), the figure is 0.522%.

Turning to `CCOc1ccc(NC(=O)CN(C)S(=O)(=O)c2ccc(-c3ccc(=O)[nH]n3)s2)cc1`, the “hERG current change (%, negative = inhibition) at 10uM” value worked out at 2.54%. As for `CCCn1nnc(NC(=O)c2ccccc2Br)n1`, the figure is 12.8%; as for `COC(=O)c1[nH]c2ccc(Cl)cc2c1NC(=O)CN1CCC(C(N)=O)CC1`, -2.26%; as for `CCN(C(=O)COC(=O)c1cc(C)n(C2CC2)c1C)c1ccccc1`, 0.464%. As for `COc1ccc(N(C(=O)/C=C/c2ccc(OC)c(OC)c2)C2=CC3CCC(C2)N3C)cc1.Cl` (stereo not drawn), the figure is -69.6%.

Take `CCOC(=O)C1CCN(C(=O)c2cccnc2)CC1`: the “hERG current change (%, negative = inhibition) at 10uM” value was 7.65%. Consider `Br.CCc1ccc(C(=O)Cn2ccsc2=N)cc1`, for which the “hERG current change (%, negative = inhibition) at 10uM” value was determined as 16.4%. As for `CC(=O)C1=C(C)OC(N)=C(C#N)C1c1ccco1` (stereo not drawn), the figure is 3.96%; as for `COc1ccc(OCCCC(=O)Nc2nc(C)c(C(C)=O)s2)cc1`, 24.5%; as for `COC(=O)c1ccc(CSc2nnc(Nc3ccc(C)cc3)s2)o1`, 13%. As for `Cc1cccc(C)c1NC(=O)CNC(=O)CCC(=O)c1cccs1`, the figure is 0.383%; as for `CS(=O)(=O)/C(C#N)=C\c1cnc(S(=O)(=O)c2ccccc2)s1`, 25.7%. As for `CN(C)Cc1c(C(=O)N/N=C/c2cccs2)nnn1-c1nonc1N`, the figure is -26.9%; as for `C=CCOC(=O)C1=C(C)OC(N)=C(C#N)C1c1c(C)nn(-c2ccccc2)c1Cl` (stereo not drawn), -19.5%.

For the compound `CC1=C(C(=O)Nc2ccccc2C(=O)NCc2ccccc2)SCCO1`, the “hERG current change (%, negative = inhibition) at 10uM” value came to 9.8%. As for `Cc1cc(OCC(=O)c2ccc(F)cc2)ccc1N1C(=O)CCC1=O`, the “hERG current change (%, negative = inhibition) at 10uM” value is listed as 5.87%. As for `COc1cc2[nH]c(C(=O)Nc3ccc(F)cc3)cc2c(OC)c1OC`, the figure is 10.5%. Consider `Cc1ccccc1NC(=O)Cn1nnc(C(=O)NCc2ccco2)c1N`, for which the “hERG current change (%, negative = inhibition) at 10uM” value is -8.17%.

Consider `Cc1cnc(C(=O)NC2CC(C)(C)Cc3c2cnn3-c2ccccc2)cn1` (stereo not drawn), for which the “hERG current change (%, negative = inhibition) at 10uM” value was -39%.

For `Cc1cc(S(=O)(=O)Nc2cccnc2)c(C)s1`, the “hERG current change (%, negative = inhibition) at 10uM” value is listed as -5.93%.

As for `CC(C)(CO)Nc1nc(Nc2ccccc2)nc(Nc2ccccc2)n1`, the “hERG current change (%, negative = inhibition) at 10uM” value came to 7.53%. As for `COc1ccc(NC(=O)c2c(Cl)cnn2C)c(C)c1`, the figure is -4.52%; as for `Cc1ccccc1-c1nc(CS(=O)CC(=O)NC2CCCCC2)c(C)o1` (stereo not drawn), -3.19%; as for `CCCCc1c(C)nc2nc(SCc3ccc(Cl)cc3)[nH]n2c1=O`, -12.8%. As for `CCc1cccc(CC)c1NC(=O)COn1nnc2ccc(C(F)(F)F)cc21`, the figure is 12.5%; as for `Cc1nc2cc(C(=O)OCC(=O)N(CC(C)C)C3CCS(=O)(=O)C3)ccc2n1-c1ccccc1` (stereo not drawn), -1.56%.

These data come from paper PMC4336329 (PLoS ONE, 2015).
